Source: the supplement of paper PMC11417369
± gives the standard deviation of the averaged measurements. The list shows a part of the results.

The sequences below were run on PfAP2-G AP2 domain (GST-tagged) (assay: gcPBM binding intensity (ln(normalized median fluorescence intensity)); higher = stronger DNA binding).
How it was run: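 GST-fused DNA-binding domains of P. falciparum, expressed in E. coli, were applied at about 25 μg on average for 1 h to an Agilent 4 × 180k array of primer-extended double-stranded 36-bp intergenic genomic probes and negative controls. Binding intensity is the highest Masliner-normalised natural-log median intensity across replicate spots of either probe orientation, measured with Alexa488 anti-GST antibody and a 488 nm scan.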

Sequence	gcPBM binding intensity (ln)
TATATAAATGTATACACACACATATAAATATAAATA [CACACA_site6751]	10.1 ± 0.18
TAACTACTAGAAAAAACACACAAAAAGTAAATATAT [CACACA_site2740]	10.045 ± 0.007
TTCCCATGTAATATTAAACACACACCCATATAACAC [CACACA_site7905]	10.7 ± 0.52
ACATACGAAAATTGGAAGGATAGATAAAAAGAAAAT [CACACA_negctrl_site51]	9.88 ± 0.13
ACGTAGTAGGTATTATGTACATATTTATAAGTATAA [XGTACX_site7336]	11.3 ± 0.64
ACATGTTCATAATTTTGTACATATTTTTATGAACAT [XGTACX_site3976]	11.1 ± 0.69
GTACAGATGTAGTATGCATGTAATTATATATAAATT [TGCATGCA_site292]	11.1 ± 0.47
ATATAAAAAAGAGGGAGTACTTGTAACAAAATAATA [XGTACX_site8679]	11.5 ± 0.65
GCGTAGTTCGGAAGGGTGCTTTTTTGTTAATAAAAA [GTGCAC_site9592]	10.2 ± 0.33
AAAAAGCAGGATTATACACACAAATATTTATATGTT [CACACA_site6634]	9.82 ± 0.11
TTCTCTATAAATGCTGCACACACATTTAATTATTTA [CACACA_site8828]	10.1 ± 0.13
ATTTCTTTTTTTTCTTGTACACATATTAAATTTATG [XGTACX_site734]	11.3 ± 0.81
TTATGTTATAAATACACACACAAAAGAAAAAAAAAA [CACACA_site7414]	10.2 ± 0.3
TCCCATAATATTAGTAGTACTATTAATATTTTCAGG [XGTACX_site4925]	11.3 ± 0.8
AATATTTATTTTTTTGCACACATATTTTACATTTTA [CACACA_site3182]	10 ± 0.21
GTAAAATTTCGGATTTGTACACATGGCTATGAAAAA [XGTACX_site939]	11.2 ± 0.68
TCTAAACAAATTAATAAAATAAGTATTCAAAATTAT [CACACA_negctrl_site731]	10.1 ± 0.18
GGAGAAAAAAAAAAAAAACACACGGTACATTCAAAG [CACACA_site1503]	10.36 ± 0.035
TTTTTTTCGTATATTACACACTATATATAGAAATTA [CACACA_site298]	10.1 ± 0.42
ATAATATTTTATGGTTGTACTTTTAGTTCTTTTTTT [XGTACX_site5756]	11.2 ± 0.77
ATTAAATATATTTTGCGTACACAAAAAAATACGTTC [XGTACX_site3862]	11.6 ± 0.97
TACGTGAAGTTATATACACACATAAATATGTCTGTA [CACACA_site7463]	9.96 ± 0.15
TTAAAGTATAACTGTACATGCGAGTAAAAGAATGAC [TGCATGCA_site899]	11.2 ± 0.67
GAAAAAAAACACATTGTGCACTTTTCCTTAAGTATA [GTGCAC_site9475]	10.4 ± 0.12
